Test results reported in PubChem BioAssay AID1460 (National Center for Advancing Translational Sciences (NCATS), 2008).
Screen size: about 270,000 compounds; about 5,800 (2.1%) were called active. The shares of active, inactive and inconclusive entries below differ from those in the screen. Calls come from the whole dose curve; as a rule, active = well fitted inhibition curve with a large enough effect; inconclusive = small, poorly fitted or top-dose-only effect; inactive = flat fitted curve, though single readings scatter. Where the call is inconclusive, the potency comes from a doubtful curve fit.

What follows are compounds tested against Microtubule-associated protein tau (Homo sapiens) (UniProt P10636) (assay: qHTS for Inhibitors of Tau Fibril Formation, Thioflavin T Binding). Details: recombinant tau K18 P301L (four-repeat tau fragment), heparin-induced fibrillization, ThT fluorescence; series mostly up to 57.4 µM; activity, negative = inhibition: at the top concentration.
UniProt P10636, sequence (P10636 whole entry, looked up, the tested form may be a part): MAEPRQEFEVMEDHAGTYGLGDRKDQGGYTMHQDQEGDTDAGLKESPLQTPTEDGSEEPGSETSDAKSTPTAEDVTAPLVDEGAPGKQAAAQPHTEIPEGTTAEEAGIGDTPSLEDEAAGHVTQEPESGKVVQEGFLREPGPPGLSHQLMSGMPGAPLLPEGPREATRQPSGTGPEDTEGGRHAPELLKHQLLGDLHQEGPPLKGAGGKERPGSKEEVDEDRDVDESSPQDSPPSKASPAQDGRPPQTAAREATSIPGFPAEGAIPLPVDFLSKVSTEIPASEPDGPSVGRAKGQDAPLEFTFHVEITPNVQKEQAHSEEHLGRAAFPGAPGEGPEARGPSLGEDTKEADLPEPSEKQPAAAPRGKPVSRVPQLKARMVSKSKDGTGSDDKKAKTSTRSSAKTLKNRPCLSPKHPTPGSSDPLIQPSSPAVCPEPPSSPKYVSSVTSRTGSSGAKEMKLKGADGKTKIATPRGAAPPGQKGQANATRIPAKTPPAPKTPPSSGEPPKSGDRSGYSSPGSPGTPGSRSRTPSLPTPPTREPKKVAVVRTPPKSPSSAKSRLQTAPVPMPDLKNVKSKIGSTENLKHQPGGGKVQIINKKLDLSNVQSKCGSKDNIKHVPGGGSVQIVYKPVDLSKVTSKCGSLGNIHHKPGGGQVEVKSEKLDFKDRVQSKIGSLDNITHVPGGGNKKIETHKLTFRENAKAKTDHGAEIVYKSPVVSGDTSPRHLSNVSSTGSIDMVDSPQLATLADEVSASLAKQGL
Procedure, shortened: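 K18 P301L tau (15 uM + 0.24 uM Alexa 594-tagged), heparin 20 uM, NaOAc pH 7, 6 h 37 C; ThT 30 uM, 1 h RT, ex 450/em 510 nm.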
% is set by controls: 0 for no effect and ±100 for the full control effect; potency is the fitted concentration of half-maximal effect; tags give direction and shape of the fitted curve.
Note: nearly all actives have a fitted effect of over 55% in size.

| Compound | Potency | activity, negative = inhibition |
| --- | --- | --- |
| CCN1/C(=N\N)c2cccc3cccc1c23 | active: 7.94 µM | – |
| COc1ccc(Nc2c3c(nc4ccc(NC(=O)c5cc(Cl)ccc5OC)cc24)CCCC3)cc1OC | active: 7.08 µM | – |
| O=c1c(Cc2c(F)cccc2Cl)c(O)ccn1CCc1c[nH]c2ccccc12 | inconclusive: 35.5 µM [inhibitor, single point] | – |
| CCN1C(=O)/C(=C/C=C2/CCCN2C)OC1=S | inconclusive: 22.4 µM [inhibitor, partial curve] | – |
| N#Cc1ccc(/C=C(\C(=O)C(=O)O)c2ccc3ccccc3n2)cc1 | inconclusive: 15.8 µM [inhibitor, partial curve, poor fit] | – |
| C/C(=N\NC(=O)COc1ccc(C)cc1[N+](=O)[O-])c1cccs1 | inconclusive: 5.62 µM [inhibitor, partial curve] | – |
| O=C(Nc1ccc2c(c1)OCCO2)c1cc2sccc2n1Cc1ccc(F)cc1 | – | inactive: -14.5% |
| CCN1C=C(C(=O)OC)C(c2cccc(OC)c2OC)C(C(=O)OC)=C1 | – | inactive: 0.506% |
| CCOC(=O)c1[nH]c2ccc(OC)cc2c1NC(=O)CCN1CCN(Cc2ccccc2)CC1 | – | inactive: -7.67% |
| COC(=O)C1(C(=O)OC)CC2=CC(CC2=O)Cc2ccccc2[C@@H]1C[N+](=O)[O-] (stereo not given in full) | – | inactive: -2.13% |
| COc1ccc(NC(=O)C(=O)NCc2ccco2)c(OC)c1 | – | inactive: -16.9% |
| C#CCOCCOCCOCCNc1nc(N2CCN(C(=O)[C@H]([C@@H](C)CC)n3cc([C@@H](N)CC(C)C)nn3)CC2)nc(N2CCN(C(=O)[C@H]([C@@H](C)CC)n3cc([C@@H](N)CC(C)C)nn3)CC2)n1 | inconclusive: 25.1 µM [inhibitor, single point] | – |
| Cc1ccc(C(=O)/C=C/Nc2cccc(O)c2)cc1 | inconclusive: 2.82 µM [inhibitor, full curve] | – |
| CCN1CCN(c2cc(C)c3cc(NC(=S)N(CC)CC)ccc3n2)CC1 | inconclusive: 20 µM [inhibitor, partial curve] | – |
| CN(C)c1ccc(C(=O)Nc2ccc(-c3nc4ccccc4o3)cc2)cc1 | inconclusive: 1.41 µM [inhibitor, partial curve] | – |
| Cc1noc2ncnc(NCc3ccc(Cl)cc3)c12 | – | inactive: 3.03% |
| COc1ccc(CN2C(=O)Cc3c2nc(N)c2c(N)nc(N4CCOCC4)c(C#N)c32)cc1 | inconclusive: 39.8 µM [inhibitor, partial curve] | – |
| CC(=O)c1ccc(-c2ccc(C(=O)N3CCN(c4ccc(F)cc4)CC3)o2)cc1 | inconclusive: 5.01 µM [inhibitor, partial curve] | – |
| Cc1[nH]c2ccccc2c1C(c1ccncc1)N1CCN(c2ccccc2F)CC1 (stereo not given) | inconclusive: 10 µM [inhibitor, partial curve] | – |
| COc1ccc(N2Cc3cccc(C(=O)Nc4cccc(F)c4)c3C2=O)cc1 | – | inactive: 5.33% |
| Cc1c(C(=O)N2CCCCC2)sc(NC(=O)c2ccco2)c1C#N | – | inactive: -7.18% |
| O=C(N/N=C/c1ccco1)c1cc(-c2ccc3ccccc3c2)n[nH]1 | inconclusive: 15.8 µM [activator, partial curve] | – |
| Cc1ccc(CNC(=O)c2c[nH]n3c(=O)c(Cc4ccc(F)cc4Cl)c(C)nc23)cc1 | active: 28.2 µM | – |

| Compound | Potency | activity, negative = inhibition |
| --- | --- | --- |
| Cc1nnc(N2CCN(c3cccc(C(F)(F)F)c3)CC2)c2c1nnn2Cc1ccccc1 | – | inactive: -10.7% |
| CCOC(=O)c1sc2nc(C)nc(Nc3ccc(OC)cc3)c2c1C | inconclusive: 10 µM [inhibitor, partial curve] | – |
| COc1ccc(C2CC(=O)Oc3c(C(CCN4CCN(c5ccccc5)CC4)c4ccc(N(C)C)cc4)c(OC)cc(OC)c32)cc1 (stereo not given) | inconclusive: 28.2 µM [inhibitor, single point] | – |
| O=C(N/N=C/c1cccnc1)c1ccc([N+](=O)[O-])cc1 | inconclusive: 35.5 µM [inhibitor, partial curve, poor fit] | – |
| COc1ccc(NC(=O)CCCn2c(=O)c3sccc3n(Cc3ccccc3C)c2=O)cc1 | – | inactive: -7.39% |
| Cn1c(C(=O)N2CCC(C(=O)N3CCN(c4ccccc4)CC3)CC2)cc2sccc21 | inconclusive: 20 µM [inhibitor, partial curve, poor fit] | – |
| COC(=O)CC1C(=O)NCCN1C(=O)CSc1nc2ccc([N+](=O)[O-])cc2s1 (stereo not given) | – | inactive: -12.5% |
| CN1/C(=C\C(=O)CN2C(=O)NC3(CCCCCC3)C2=O)C(C)(C)c2ccccc21 | inconclusive: 31.6 µM [inhibitor, partial curve] | – |
| CC1CCN(C(=O)CSc2nc3ccccc3s2)CC1 | – | inactive: -24.1% |
| Cc1cc(/C=C2/C(=O)NN(c3ccccc3)C2=O)c(C)n1-c1ccc(O)cc1 | active: 12.6 µM | – |
| C=CCNc1nc(-c2ccc(OC)cc2OC)cs1 | inconclusive: 14.1 µM [inhibitor, partial curve] | – |
| CCn1c(N)c(C(=O)NCc2ccc3c(c2)OCO3)sc1=S | – | inactive: -15.6% |
| Cc1sc(-c2ccccn2)nc1OC(=O)c1cccc(Cl)c1Cl | inconclusive: 39.8 µM [inhibitor, single point] | – |
| COc1cc(C2C(C(=O)c3ccco3)=C(O)C(=O)N2c2cc(C)on2)cc(Br)c1O (stereo not given) | inconclusive: 35.5 µM [inhibitor, partial curve] | – |
| CC(C)c1ccc(C2=NC(c3ccncc3)=Nc3ccc(F)cc3N2)cc1 | inconclusive: 14.1 µM [inhibitor, partial curve] | – |
| Cc1ccc(C)c(NC(=O)c2cc(=O)c3ccccc3o2)c1 | inconclusive: 7.94 µM [inhibitor, partial curve, poor fit] | – |
| COc1cccc(Nc2ccc(C(=O)O)cc2[N+](=O)[O-])c1 | inconclusive: 12.6 µM [inhibitor, partial curve] | – |
| O=C(Nc1nc2c(s1)CCCC2)c1ccccc1F | inconclusive: 10 µM [inhibitor, partial curve] | – |
| COC/C=C/C1=CC2=CC(=O)C(C)(OC(=O)C3CCCC3)C(=O)C2=CO1 (stereo not given) | active: 25.1 µM | – |
| Nc1ccccc1C(=O)/C=C/c1ccccc1 | inconclusive: 10 µM [inhibitor, partial curve] | – |
| COc1ccc(CN2C=C3C(=O)C(C)(OC(=O)CCc4ccccc4)C(=O)C=C3C=C2c2ccc(C#N)cc2)cc1 (stereo not given) | inconclusive: 15.8 µM [inhibitor, partial curve] | inactive: -14.7% [at 11.5 µM] |
| CSc1nc(-c2cccs2)c(C#N)c(=O)[nH]1 | inconclusive: 14.1 µM [inhibitor, single point] | – |
| O=C1/C(=C\c2cccs2)N=C(c2cccs2)N1Nc1ccccc1 | active: 10 µM | – |

| Compound | Potency | activity, negative = inhibition |
| --- | --- | --- |
| O=C(Nc1cccc(NC(=O)c2cccs2)c1)c1ccc2c(c1)OCCO2 | inconclusive: 10 µM [inhibitor, partial curve] | – |
| O=C(Cn1cc(SCc2ccccc2F)c2ccccc21)N1CCCC1 | inconclusive: 35.5 µM [inhibitor, single point] | – |
| CCCOc1ccc(-c2nc(C#N)c(NCCCn3ccnc3)o2)cc1 | inconclusive: 14.1 µM [inhibitor, partial curve] | – |
| O=C1CCN(N=Nc2cccc(Cl)c2)N1 | inconclusive: 17.8 µM [inhibitor, partial curve] | – |
| Cn1c(=S)[nH]c2ccccc21 | – | inactive: -15% |
| COc1ccc(/C=C2\N=C(SC)SC2=O)cc1OC | inconclusive: 2.82 µM [inhibitor, full curve, poor fit] | – |
| N#C/C(=C\C1=C(N2CCOCC2)C(=C/c2cccc([N+](=O)[O-])c2)/CC1)C(=O)Nc1ccccc1F | active: 2.24 µM | – |
| CN(C)c1ccc(NC(=O)Nc2ccc3snnc3c2)cc1 | inconclusive: 3.16 µM [inhibitor, full curve] | – |
| CCOc1ccc(NC(=S)N(CC)Cc2ccccc2)cc1 | inconclusive: 15.8 µM [inhibitor, partial curve] | – |
| Fc1ccccc1C1CC(c2ccco2)=Nc2ccccc2S1 (stereo not given) | inconclusive: 25.1 µM [inhibitor, single point] | – |
| CC(C)c1nc(SCC(=O)N2CCCc3ccccc32)c2c(=O)n(C)c(=O)n(C)c2n1 | inconclusive: 10 µM [inhibitor, partial curve] | – |
| CC1CCc2nc(/C(C#N)=C/c3cccnc3)sc2C1 (stereo not given) | inconclusive: 5.01 µM [inhibitor, partial curve] | – |
| COc1ccc2c(c1)-c1nc(/N=C/c3ccc(O)cc3)sc1CC2 | active: 28.2 µM | – |
| Cc1cccc(CNc2cc(-c3ccoc3)ncn2)c1 | active: 17.8 µM | – |
| O=C(Nc1ccc(Br)cc1F)c1cc2nc(-c3ccco3)cc(C(F)(F)Cl)n2n1 | – | inactive: -11.1% |
| CC(=O)c1ccc(NC(=O)CSc2nnc(Cn3cnc4ccccc43)o2)cc1 | – | inactive: -13.8% |
| Cc1ccsc1C1NC(=O)c2c(sc3c2CCN(C)C3)N1 (stereo not given) | inconclusive: 15.8 µM [inhibitor, partial curve] | – |
| Cc1ccc(NCC(=O)N/N=C\C(Br)=C\c2ccccc2)cc1 | inconclusive: 2 µM [inhibitor, full curve] | – |
| C/C(Cn1nnc2ccccc21)=N\NC(=O)c1ccc(Br)cc1 | inconclusive: 22.4 µM [inhibitor, single point] | – |
| CCOC(=O)C1CSC2(CCC(c3ccccc3)CC2)N1 (stereo not given) | inconclusive: 15.8 µM [inhibitor, partial curve] | – |
| Cc1onc(-c2ccccc2Cl)c1C(=O)Oc1cc(N)n(S(=O)(=O)c2ccc(F)cc2)n1 | inconclusive: 17.8 µM [inhibitor, partial curve] | – |
| COc1ccc(NC(=O)c2c(NCc3cccs3)sc3c2CCCCC3)c(OC)c1 | active: 25.1 µM | – |
| CC(/C=C1\SC(=S)N(NC(=O)c2ccc(C)cc2)C1=O)=C\c1ccccc1 | inconclusive: 7.08 µM [inhibitor, partial curve] | – |
